# Test results reported in PubChem BioAssay AID1346428 (National Center for Advancing Translational Sciences (NCATS), 2018).
# Where “and” joins values, the source holds several entries; their conditions need not be identical. Equal values may be shown once. Screen size: about 48,000 compounds; about 1,200 (2.5%) were called active. Another 2% or so got no clear call; they are omitted.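 Rule for the calls: active = activation of at least 60% and not above a set upper limit (about 1 call in 100 departs from these limits); inconclusive = activation of 40% to 60%, or above that upper limit; inactive = activation under 40%.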 The list shows a part of the results.
# Target: Probable G-protein coupled receptor 32 (Homo sapiens) (UniProt O75388)
# Sequence of UniProt O75388 (O75388 whole entry, looked up): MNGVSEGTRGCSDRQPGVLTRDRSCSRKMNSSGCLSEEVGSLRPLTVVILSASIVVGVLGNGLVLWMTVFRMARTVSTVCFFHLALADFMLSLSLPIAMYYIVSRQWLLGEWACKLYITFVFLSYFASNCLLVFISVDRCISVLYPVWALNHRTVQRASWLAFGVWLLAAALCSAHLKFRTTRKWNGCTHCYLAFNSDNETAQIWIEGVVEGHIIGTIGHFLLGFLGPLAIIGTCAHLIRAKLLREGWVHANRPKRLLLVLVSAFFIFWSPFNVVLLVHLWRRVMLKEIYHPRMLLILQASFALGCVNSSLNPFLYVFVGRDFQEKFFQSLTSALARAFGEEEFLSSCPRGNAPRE
# Assay: qHTS for Agonists of Human Resolvin D1 Receptor DRV1; note: 0% is about no effect
# Settings: CHO-K1 GPR32 beta-arrestin PathHunter luminescence, 90 min; at 76.9 µM; stronger effect = higher value; zero percent set by DMSO-only wells
# Outline: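 Luminescent readout of beta-Gal complementation quantifies ligand-induced beta-arrestin association with GPR32 in CHO-K1 cells; 90 min compound incubation at 37 °C, detection 1 h at room temperature.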
row,Structure (SMILES),activation
1,CCOc1ccc(NC(=O)Cn2cnc3nc4c(cc3c2=O)CCCC4)cc1,inactive: -8.79%
2,COc1ccc(-c2[nH]c(-c3ccc(F)cc3)nc2SCC(=O)Nc2ccc(OC)c(OC)c2)cc1,inactive: -23.5%
3,Fc1ccc(-n2ncc3c(Nc4ccc(Oc5ccc(Cl)cc5)cc4)ncnc32)cc1,inactive: -2.44%
4,CC1=C(c2ccc(Cl)cc2)S(=O)(=O)N=C1N1CCN(c2cccc(C)c2)C(C)C1 (stereo unspecified),inactive: 1.62%
5,COC(=O)CNC(c1ccccc1)c1cc(Br)ccc1NC(=O)c1cc(OC)c(OC)c(OC)c1 (stereo unspecified),inactive: -8.52%
6,Cc1ccc(N2CC(c3nnc(Cc4ccc(F)cc4Cl)o3)CC2=O)cc1 (stereo unspecified),inactive: 0.894%
7,CCCCNC(=O)c1ccc(-c2nc(CS(=O)(=O)c3ccc(C)cc3)c(C)o2)cc1,active: 69.4%
8,CCOC(=O)c1ccc(OCC2c3cc(OC)c(OC)cc3CCN2C(=O)Cc2ccc(OC)c(OC)c2)cc1 (stereo unspecified),inactive: 11.2%
9,COc1ccc2c(c1)c(N1CCCC1=O)c(C(=O)Nc1ccc(Cl)cc1C)n2C,inactive: 3.32%
10,CCN1Cc2cccc(C(=O)Nc3ccc(F)cc3)c2C1=O,inactive: -1.53%
11,Cc1ccc(-c2csc(=Nc3ccccc3)n2CCCO)cc1,active: 86%
12,CCOC(=O)c1ccc(NC(=O)Cn2nnc(-c3ccc(C(F)(F)F)cc3)n2)cc1,inactive: -9.7%
13,CNC(=O)c1ccc(NC(=O)c2nsc3ccccc23)cc1,inactive: -6.81%
14,COc1ccc(CCNC(=O)CCCn2c(=O)c3ccccc3n(CC(=O)Nc3c(C)cc(C)cc3C)c2=O)cc1OC,inactive: 13.6%
15,C[C@@H]1C[C@H]2[C@@H]3CCC4=CC(=O)C=C[C@]4(C)[C@@]3(F)[C@@H](O)C[C@]2(C)[C@@]1(O)C(=O)COC(=O)c1ccncc1,inactive: 10.6%
16,COC(=O)c1c(NC(=O)c2ccc(S(=O)(=O)N3CCCCC3)cc2)sc2c1CCN(C)C2,inactive: -29.7%
17,Cc1ccc(-n2c(SCc3nc(-c4ccccc4C)no3)nnc2-c2ccncc2)cc1C,inactive: -8.52%
18,COC(=O)c1ccc(OC)c(Cn2c(=O)n(-c3cccc(Cl)c3)c(=O)c3c2c2cc(C)ccc2n3C)c1,inactive: -3.66%
19,CCOC(=O)c1c(-c2ccc(C)cc2)csc1NC(=O)c1ccc(C(C)(C)C)cc1,inactive: -6.65%
20,CCc1ccc(NC(=O)CCS(=O)(=O)c2ccc3c(c2)oc(=O)n3C)cc1,inactive: 28.9%
21,CCC(Cc1ccccc1)NC(=O)c1csc2c1CCCCC2 (stereo unspecified),inactive: 1.5%

row,Structure (SMILES),activation
1,COc1cccc(Cn2c(SCc3ccc(C(=O)N4CCC(C)CC4)cc3)nc3ccncc32)c1,inactive: -41%
2,CC1(C)O[C@@H]2C[C@H]3[C@@H]4C[C@H](F)C5=CC(=O)CC[C@]5(C)[C@H]4[C@@H](O)C[C@]3(C)[C@]2(C(=O)CO)O1,inactive: -49.9%
3,COc1cc(NC(=O)CCCSc2nc(-c3ccco3)cc(C(F)(F)F)n2)cc(OC)c1OC,inactive: 11.6%
4,C[C@H]1C[C@H]2[C@@H]3CCC4=CC(=O)C=C[C@]4(C)[C@H]3C(=O)C[C@]2(C)[C@@]1(O)C(=O)CO,inactive: -12.4%
5,COc1ccc2c(C)cc(SCC(=O)Nc3nsc(-c4ccc(C(C)(C)C)cc4)n3)nc2c1,inactive: 12.6%
6,CC(C)(C)OC(=O)N1CCC(c2c(C(=O)NCCN3CCOCC3)cnn2-c2ccccc2)CC1,inactive: -0.589%
7,COc1ccc2oc(-c3ccc(C)c(NC(=O)c4ccc(N5CCCCC5)c([N+](=O)[O-])c4)c3)nc2c1,inactive: -9.83%
8,CCOC(=O)c1c(Nc2ccccc2)nnc(-c2ccccc2)c1-c1ccccc1,inactive: -15.6%
9,O=C(Cn1c(=O)oc2ccccc21)NCc1ccc(Cl)cc1,inactive: -12.3%
10,CCN(c1ccccc1)S(=O)(=O)c1cc(C(=O)Nc2ccc(Br)cc2)ccc1F,inactive: 1.14%
11,COc1ccc(CNC(=O)CN2CCSc3ccccc32)c(OC)c1,inactive: 15.4%
12,CCN(CC)C(=O)Cn1c(SCC(=O)Nc2ccc(C)c(C)c2)nc2ccccc21,inactive: -1.3%
13,COc1ccccc1NC(=O)C1=C(C)Nc2ncnn2C1c1ccc[nH]1 (stereo unspecified),inactive: 34.8%
14,CN1CCN(c2ncc3c(n2)CCN(Cc2ccccc2Cl)C3)CC1,inactive: -26.2%
15,Cc1ccc(-n2ncc3c(NCCc4ccccc4)ncnc32)cc1,active: 93.5%
16,CCOc1ccc(S(=O)(=O)n2nc(C)c(S(=O)(=O)N3CCCCCC3)c2C)cc1,inactive: -4.57%
17,Cc1cc2oc(C(=O)N(Cc3ccccc3)C3CCS(=O)(=O)C3)cc(=O)c2cc1C (stereo unspecified),inactive: -18.4%
18,CCc1ccc(-n2c(=O)c3cccnc3n2CC(=O)N(CC)c2cccc(C)c2)cc1,inactive: -40.3%
19,COc1cccc(C(=O)Nc2ccc3c(c2)CCCN3C(=O)c2cccs2)c1OC,inactive: -12.7%
20,Cc1ccc(NC(=O)CN2C(=O)C(c3ccccc3)=NC2(C)C)cc1C,inactive: -30.2%
21,Cc1ccccc1C(=O)Nc1ccccc1C(=O)OCc1cc(=O)n2nc(C3CC3)sc2n1,inactive: 8.54%

row,Structure (SMILES),activation
1,Cc1cc(-c2nc3ncccc3o2)ccc1NC(=O)COc1ccc(C(C)(C)C)cc1,inactive: 19.6%
2,CCc1ccc(NC(=O)CSc2nnc(-c3nonc3NC(C)=O)n2-c2ccccc2)cc1,inactive: -16.9%
3,Cc1c2cnn(-c3ccccc3)c(=O)c2c(C)n1CC(=O)NCc1ccc(Cl)cc1,inactive: 24.7%
4,Cc1[nH]c(C)c(Cl)c(=O)c1Cl,inactive: 0.369%
5,CCOc1ccc(Nc2c(S(=O)(=O)c3ccc(C)cc3)cnc3ccccc23)cc1,inactive: -41.6%
6,CCOC(=O)c1ccc(N2C(=O)c3[nH]nc(-c4ccc(OC)cc4)c3C2c2ccc(C)cc2)cc1 (stereo unspecified),inactive: 9.46%
7,CCOCCCNC(=O)c1c(NC(=O)c2cc(=O)c3cc(C)c(C)cc3o2)sc2c1CCC2,inactive: -1.85%
8,CCOc1ccc(N2CC(c3nc4ccccc4n3CCC3CCCCC3)CC2=O)cc1 (stereo unspecified),inactive: 4.69%
9,COc1ccc(CN2C(=O)N(c3ccc(F)cc3)C(=O)C2CC(=O)Nc2ccccc2)cc1 (stereo unspecified),inactive: -3.4%
10,CCn1c(=O)cc(OCC(=O)NCc2ccc(F)cc2Cl)c2ccccc21,inactive: 6.73%
11,CCCNC(=O)C1CCN(c2cc(C)nc3c(-c4ccc(OC)c(OC)c4)c(C)nn23)CC1,inactive: 13.7%
12,O=C1CN(C(=O)c2ccccc2)C(c2ccc(F)cc2)c2cc(Br)ccc2N1 (stereo unspecified),inactive: -12.9%
13,COc1ccc2sc(N(Cc3cccnc3)C(=O)c3ccco3)nc2c1,inactive: -21.3%
14,Cc1ccc(C)c(NC(=O)CSc2nncn3c2cc2sccc23)c1,inactive: -8.43%
15,CCc1cccc(C)c1NC(=O)Nc1csc2c1CCCC2,inactive: -21.5%
16,Cc1oc(-c2ccc(Cl)cc2)nc1CSc1nnc(C)n2c1cc1sccc12,inactive: -4.21%
17,O=C1N=C(O)CN1/N=C/c1ccc(-c2ccc([N+](=O)[O-])cc2)o1,inactive: -25.7% and inactive: 9.29%
18,Cc1ccc(CCNc2nc3ccccc3c3nc(-c4ccccc4)nn23)cc1,inactive: 8.4%
19,COc1ccc(-c2noc(-c3ccc(NC4CCCCC4)c([N+](=O)[O-])c3)n2)cc1OC,inactive: 13.2%
20,Cc1cccc(CS(=O)(=O)CC2Nc3ccc(C(=O)NCc4ccccc4Cl)cc3NC2=O)c1 (stereo unspecified),inactive: -13.7%
21,COC(=O)c1cc(NC(=O)Cn2ncc3c2-c2ccccc2OC3)cc(C(=O)OC)c1,inactive: -37.9%

row,Structure (SMILES),activation
1,Cc1ccc(-n2c(=O)c3c(C)c(C)sc3n(CC(=O)c3ccc(Cl)cc3)c2=O)cc1C,inactive: -15.3%
2,CCCn1c2ccccc2c2cnn(CC(=O)N(CCCOC(C)C)Cc3ccco3)c(=O)c21,inactive: 9.92%
3,COc1cc(Nc2ncnc3onc(-c4ccc(Cl)cc4)c23)cc(OC)c1,inactive: 33.4%
4,COc1cc(C(=O)Nc2ccc(OCc3cc(=O)n4ccc(C)cc4n3)cc2)cc(OC)c1OC,inactive: 4.48%
5,N#Cc1ccccc1CSc1nnc(-c2ccccc2)o1,inactive: -1.15%
6,Cc1ccn2c(Nc3ccc4c(c3)OCO4)c(-c3ccco3)nc2c1,inactive: -5.6%
7,N#Cc1c(C(F)(F)F)cc(-c2cccs2)nc1SCC(=O)Nc1ccc(Cl)cc1,inactive: -11.1%
8,O=C(Cn1c(=O)n(Cc2ccc(F)cc2)c(=O)c2sc3ccccc3c21)NCc1ccccc1Cl,inactive: 0.161%
9,COc1ccc(N2CCN(C(CNS(=O)(=O)c3c(C)cc(C)cc3C)c3ccco3)CC2)cc1 (stereo unspecified),inactive: -30.9%
10,Cc1cccc(N2CCN(S(=O)(=O)c3c(C)[nH]c(=O)[nH]c3=O)CC2)c1C,inactive: 5.29%
11,COc1ccc(NC(=O)c2c(C)oc3ccc(O)c(CN4CCCC(C)C4)c23)cc1Cl (stereo unspecified),inactive: -21.8%
12,Cc1ccc(-n2ncc(C(=O)N3CCc4ccccc4C3)c2C2CCN(C(=O)OC(C)(C)C)CC2)cc1C,inactive: -13.9%
13,Cc1ccc(C)c(CN2C(=O)c3ccccc3Sc3ccc(C(=O)NC4CCCC4)cc32)c1,inactive: -3.57%
14,Cc1cc(C)c(C#N)c(SCC(=O)Nc2ccccc2C#N)n1,inactive: 6.61%
15,Cc1ccc(N2CCN(C(=O)CCc3c(C)nc4ncnn4c3C)CC2)c(C)c1,inactive: 16.9%
16,COc1ccccc1-c1noc(-c2ccc(NCCc3ccccc3)c([N+](=O)[O-])c2)n1,inactive: 2.24%
17,CCS(=O)(=O)c1ncc(Cl)c(C(=O)N(Cc2ccccc2)Cc2ccco2)n1,inactive: -8.27%
18,COc1ccc(-c2nc(CN3CCC(C(=O)NCCN(CC(C)C)CC(C)C)CC3)c(C)o2)cc1OC,inactive: -2.75%
